Patent publication CN117412992A (NOVIMMUNE SA, dated 2024)

Target: T1, human CD47 on cells (Raji, Nalm-6, HT-1080 tumour cells; human red blood cells) (human, UniProt Q08722)
T1 construct: whole, on cells
Assay: flow cytometry on human red blood cells (CD47+, PD-L1-)

B1: K2xS100 CD47xPD-L1 bispecific antibody (bispecific antibody, human IgG1, kappa, lambda)
heavy: [letters of about 120 residues left out][letters of about 100 residues left out][letters of human IgG1 Fc left out]
light 1: DIQMTQSPSSLSASVGDRVTITCRASQSISSYLNWYQQKPGKAPKLLIYAASSLQSGVPSRFSGSGSGTDFTLTISSLQPEDFATYYCQQMHPRAPKTFGQGTKVEIKRTVAAPSVFIFPPSDEQLKSGTASVVCLLNNFYPREAKVQWKVDNALQSGNSQESVTEQDSKDSTYSLSSTLTLSKADYEKHKVYACEVTHQGLSSPVTKSFNRGEC
light 2: QSVLTQPPSASGTPGQRVTISCSGSSSNIENKPVNWYQQLPGTAPKLLIYHDTTRPSGVPDRFSGSKSGTSASLAISGLQSEDEADYYCAAWDFATWPATEVFGGGTKLTVLGQPKAAPSVTLFPPSSEELQANKATLVCLISDFYPGAVTVAWKADSSPVKAGVETTTPSKQSNNKYAASSYLSLTPEQWKSHRSYSCQVTHEGSTVEKTVAPTECS
notes: kappa-lambda body with a common heavy chain; also called K2xS100 bsAb; bsAb K2xS100
binding result: binds
